From PubChem BioAssay (NCATS)
The inconclusive results got no clear call from the source; some entries with a clear call stand among them for comparison. For part of these data: Potencies of inconclusive entries are left out as doubtful fits. Calls of active or inactive are those of the source. Calls come from the whole dose curve; as a rule, active = well fitted curve in the direction sought with a large enough effect; inconclusive = small, poorly fitted or top-dose-only effect, or another doubt; inactive = no such curve, though single readings can be large; an effect the other way counts as inactive or inconclusive.

Tests used:
[1] = qHTS for Inhibitors of the vitamin D receptor (VDR): Hit Validation using a Texas Red Assay (AID 602201); note: % is set by controls: 0 for no effect and ±100 for the full control effect
In short: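 After a 2-hour room-temperature incubation, polarization of Texas-Red emission was read (Ex 595 nm/Em 615 nm). Final mix contained 7 nM Texas Red, 1.5 uM VDR-LBD and LG19078.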

[2] = target: Vitamin D3 receptor (Homo sapiens) (UniProt P11473); test: qHTS for Inhibitors of the vitamin D receptor (VDR): Hit Validation using a Beta-Lactamase Assay (AID 602202); note: potency is the fitted concentration of half-maximal effect
Sequence of UniProt P11473 (P11473 whole entry, looked up, the tested form may be a part): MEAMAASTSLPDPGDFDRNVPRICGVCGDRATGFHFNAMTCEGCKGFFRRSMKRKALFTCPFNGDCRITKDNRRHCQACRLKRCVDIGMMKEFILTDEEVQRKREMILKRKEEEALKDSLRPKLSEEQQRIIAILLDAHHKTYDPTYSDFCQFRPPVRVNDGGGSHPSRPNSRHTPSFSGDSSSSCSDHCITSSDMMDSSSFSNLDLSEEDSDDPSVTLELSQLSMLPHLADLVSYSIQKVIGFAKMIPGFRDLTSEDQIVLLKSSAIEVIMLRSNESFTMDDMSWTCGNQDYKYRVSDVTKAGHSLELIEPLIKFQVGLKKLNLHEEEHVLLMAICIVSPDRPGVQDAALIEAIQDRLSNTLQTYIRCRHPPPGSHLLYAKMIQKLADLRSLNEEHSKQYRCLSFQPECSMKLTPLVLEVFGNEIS
In short: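 Beta-lactamase reporter read-out (447 nm emission of cleaved FRET substrate, 2 h) after 18 h compound exposure of HEK293 cells carrying a VDR-GAL4 fusion and UAS reporter, stimulated with LG190178.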

[3] = qHTS for Inhibitors of the vitamin D receptor (VDR): Hit Validation using a Cytotoxicity Assay (AID 602204);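 note: cells co-treated with VDR agonist LG190178 at 300 nM; potency is the fitted concentration of half-maximal effect; nearly all actives have a fitted effect of over 75% in size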
In short: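 Using cycloheximide at high concentration as positive control and DMSO as negative, cells plated at 20,000 per well (4 h) are exposed to compounds for 18 h; ATP luminescence is read after 30 min.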

[4] = target: Bifunctional 3'-5' exonuclease/ATP-dependent helicase WRN (Homo sapiens) (UniProt Q14191); test: qHTS for Inhibitors of WRN Helicase: Confirmatory Assay for Cherry-picked Compounds. (AID 720497); note: nearly all actives have a fitted effect of over 65% in size; note: potency is the fitted concentration of half-maximal effect
In short: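 Compound and 20 nM WRN incubated 15 min, RT. Forked duplex (100 nM) plus ATP (2 mM) added. Fluorescence monitored kinetically and normalized to controls.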

[5] = qHTS for Inhibitors of WRN Helicase: Thiazole Orange DNA Binding Counterscreen (AID 720499);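 note: drop in dye fluorescence marks compound binding to DNA; potency is the fitted concentration of half-maximal effect; nearly all actives have a fitted effect of over 60% in size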
In short: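 Thiazole orange displacement from unlabeled DNA (50 nM DNA, 100 nM dye) was monitored by fluorescence, ex 480/em 530 nm, following 15 min room-temperature incubation with pintool-dispensed compounds.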

[6] = target: RecQ-like DNA helicase BLM (Homo sapiens) (UniProt P54132); test: qHTS for Inhibitors of WRN Helicase: BLM Helicase Counterscreen for WRN Inhibitors (AID 720503); note: potency is the fitted concentration of half-maximal effect; nearly all actives have a fitted effect of over 60% in size
In short: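 Reactions were started with 100 nM DNA substrate and 2 mM ATP (final) after compound and 1 nM BLM stood 15 min at room temperature in Tris-HCl pH 8.0 buffer with NaCl, MgCl2, DTT and Tween-20. Two red-fluorescence reads 15 min apart were normalized against DMSO and no-enzyme wells.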

[7] = target: Rap guanine nucleotide exchange factor 3 (Homo sapiens) (UniProt O95398); test: Confirmatory qHTS for antagonist of cAMP-regulated guanine nucleotide exchange factor 3 (EPAC1) (AID 1645880); details: EPAC1 Rap1B-BODIPY-GDP exchange, fluorescence; activity, negative = inhibition: at 115 µM (top of the series); note: nearly all actives have a fitted effect of over 55% in size; note: potency is the fitted concentration of half-maximal effect;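 for activity, negative = inhibition: plate controls were DMSO only for no effect and full effect of the ATA control for full effect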
Sequence of UniProt O95398 (O95398 whole entry, looked up): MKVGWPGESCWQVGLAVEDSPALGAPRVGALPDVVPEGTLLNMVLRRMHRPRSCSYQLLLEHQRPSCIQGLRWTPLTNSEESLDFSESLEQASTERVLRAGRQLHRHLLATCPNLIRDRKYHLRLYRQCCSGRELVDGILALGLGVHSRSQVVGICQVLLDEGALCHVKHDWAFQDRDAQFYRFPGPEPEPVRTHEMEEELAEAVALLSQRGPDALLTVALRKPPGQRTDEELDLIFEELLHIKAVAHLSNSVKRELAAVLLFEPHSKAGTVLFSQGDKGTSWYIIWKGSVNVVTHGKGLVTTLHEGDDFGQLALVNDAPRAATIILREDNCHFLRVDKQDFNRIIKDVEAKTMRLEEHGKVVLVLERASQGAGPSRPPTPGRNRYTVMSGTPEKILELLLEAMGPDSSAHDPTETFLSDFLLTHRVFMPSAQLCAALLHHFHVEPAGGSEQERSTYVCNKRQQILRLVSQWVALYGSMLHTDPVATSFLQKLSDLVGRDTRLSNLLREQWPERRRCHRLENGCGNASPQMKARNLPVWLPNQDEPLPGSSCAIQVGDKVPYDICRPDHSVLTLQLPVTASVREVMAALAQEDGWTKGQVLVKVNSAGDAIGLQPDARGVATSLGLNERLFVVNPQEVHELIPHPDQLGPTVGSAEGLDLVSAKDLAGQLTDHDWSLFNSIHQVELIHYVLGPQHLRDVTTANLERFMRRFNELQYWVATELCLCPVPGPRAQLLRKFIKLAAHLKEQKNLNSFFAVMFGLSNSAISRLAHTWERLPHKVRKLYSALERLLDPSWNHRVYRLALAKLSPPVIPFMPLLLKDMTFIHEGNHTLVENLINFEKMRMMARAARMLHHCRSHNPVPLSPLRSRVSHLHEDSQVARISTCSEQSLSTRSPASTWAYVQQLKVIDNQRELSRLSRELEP
In short: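 Nucleotide exchange uses 100 nM EPAC1, 250 nM RAP1B-BODIPY-GDP and 50 uM GDP, with compounds in a concentration-titration series. After 5 min at room temperature, fluorescence (480 nm ex/540 nm em) is read every 5 min for 30 min. Data are normalized to control ATA and DMSO.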

[8] = target: Rap guanine nucleotide exchange factor 3 (Homo sapiens) (UniProt O95398); test: Confirmatory qHTS for agonist of cAMP-regulated guanine nucleotide exchange factor 3 (EPAC1) (AID 1645881); details: EPAC1 Rap1B BODIPY-GDP exchange fluorescence; activation: at 154 µM (top of the series), 100% = cAMP control response; note: nearly all actives have a fitted effect of over 75% in size; note: potency is the fitted concentration of half-maximal effect;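 for activation: EPAC1 catalysed release of BODIPY-GDP from Rap1B seen as fluorescence loss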
[9] = target: Rap guanine nucleotide exchange factor 3 (Homo sapiens) (UniProt O95398); test: Counterscreen qHTS for agonist of cAMP-regulated guanine nucleotide exchange factor 3 (EPAC1) (AID 1645889); details: EPAC1 Rap1B-BODIPY-GDP exchange, fluorescence; activation: at 154 µM (top of the series) unless noted; note: nearly all actives have a fitted effect of over 40% in size; note: potency is the fitted concentration of half-maximal effect; for activation: % of control where 0% means no effect
In short: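 Rap1B-BODIPY-GDP 250 nM + GDP 50 uM; cpds 7-pt, final 9.74 nM–152 uM (activator mode) or from 7.32 nM upwards (inhibitor mode); RT; FI 480/540 nm at 5 and 30 min, then ± cAMP, reread.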

[10] = target: DNA polymerase eta (Homo sapiens) (UniProt Q9Y253); test: qHTS for Inhibitors of Polymerase Eta: Confirmatory Assay for Cherry-picked Compounds (AID 720502); details: Pol eta primer extension, TAMRA/BHQ fluorescence, 10 min; note: potency is the fitted concentration of half-maximal effect
Sequence of UniProt Q9Y253 (Q9Y253 whole entry, looked up): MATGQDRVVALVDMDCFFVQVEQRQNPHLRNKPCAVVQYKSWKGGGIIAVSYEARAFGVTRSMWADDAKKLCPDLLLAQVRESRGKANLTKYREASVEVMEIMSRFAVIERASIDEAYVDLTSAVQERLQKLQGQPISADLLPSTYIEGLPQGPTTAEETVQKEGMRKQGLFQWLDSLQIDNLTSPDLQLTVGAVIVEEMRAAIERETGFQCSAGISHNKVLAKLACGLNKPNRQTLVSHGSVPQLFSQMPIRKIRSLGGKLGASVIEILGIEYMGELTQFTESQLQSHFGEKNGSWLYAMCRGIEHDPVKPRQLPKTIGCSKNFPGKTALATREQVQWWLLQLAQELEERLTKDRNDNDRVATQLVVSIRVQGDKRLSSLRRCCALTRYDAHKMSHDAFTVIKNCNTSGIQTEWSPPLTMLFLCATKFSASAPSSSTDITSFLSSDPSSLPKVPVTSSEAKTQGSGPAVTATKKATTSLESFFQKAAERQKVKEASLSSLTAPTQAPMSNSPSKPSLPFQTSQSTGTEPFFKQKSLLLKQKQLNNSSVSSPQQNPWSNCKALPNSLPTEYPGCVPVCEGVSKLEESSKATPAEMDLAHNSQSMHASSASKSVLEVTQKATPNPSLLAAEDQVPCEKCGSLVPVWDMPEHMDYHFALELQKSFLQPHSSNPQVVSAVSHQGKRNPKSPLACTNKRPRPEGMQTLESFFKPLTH
In short: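 10 nM Pol eta + cpd, 15 min RT; start w/ 50 nM final primer/TAMRA-reporter/BHQ-2-template substrate; kinetic read 0 and 10 min, ex 525/em 598 nm. Buffer-only wells = negative control.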

[11] = target: DNA polymerase iota (Homo sapiens) (UniProt Q9UNA4); test: qHTS for Inhibitors of Polymerase Iota: Confirmatory Assay for Cherry-picked Compounds (AID 720496); details: Pol iota primer extension, TAMRA/BHQ fluorescence; note: potency is the fitted concentration of half-maximal effect
Sequence of UniProt Q9UNA4 (Q9UNA4 whole entry, looked up): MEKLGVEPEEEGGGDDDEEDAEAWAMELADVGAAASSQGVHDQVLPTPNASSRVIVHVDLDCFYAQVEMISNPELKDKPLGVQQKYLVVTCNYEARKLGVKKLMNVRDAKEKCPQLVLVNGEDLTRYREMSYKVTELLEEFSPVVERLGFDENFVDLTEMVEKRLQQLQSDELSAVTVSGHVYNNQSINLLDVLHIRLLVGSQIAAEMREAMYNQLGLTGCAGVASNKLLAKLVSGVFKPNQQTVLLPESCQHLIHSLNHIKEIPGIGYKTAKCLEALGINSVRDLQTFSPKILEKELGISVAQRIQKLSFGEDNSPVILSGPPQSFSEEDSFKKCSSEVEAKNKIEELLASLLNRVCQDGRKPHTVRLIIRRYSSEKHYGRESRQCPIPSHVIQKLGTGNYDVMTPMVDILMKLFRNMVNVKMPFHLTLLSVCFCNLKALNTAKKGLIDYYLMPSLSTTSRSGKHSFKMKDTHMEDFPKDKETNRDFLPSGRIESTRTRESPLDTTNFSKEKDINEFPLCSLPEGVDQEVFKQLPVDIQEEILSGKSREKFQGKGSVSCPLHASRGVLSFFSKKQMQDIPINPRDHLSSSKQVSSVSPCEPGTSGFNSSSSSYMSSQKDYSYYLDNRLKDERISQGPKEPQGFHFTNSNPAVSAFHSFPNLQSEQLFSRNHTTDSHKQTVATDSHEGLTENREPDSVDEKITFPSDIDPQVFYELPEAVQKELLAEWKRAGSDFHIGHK
In short: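 Step 1: 10 nM Pol iota with compound, 15 min, room temperature. Step 2: 50 nM final quenched DNA substrate added. Step 3: fluorescence (ex 525, em 598 nm) read at 0 and after 10 min.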

[12] = target: Tumor susceptibility gene 101 protein (Homo sapiens) (UniProt Q99816); test: qHTS Assay for Iinhibitors of HIV-1 Budding by Blocking the Interaction of PTAP/TSG101: Hit Validation (AID 651600); note: potency is the fitted concentration of half-maximal effect; nearly all actives have a fitted effect of over 70% in size
Sequence of UniProt Q99816 (Q99816 whole entry, looked up): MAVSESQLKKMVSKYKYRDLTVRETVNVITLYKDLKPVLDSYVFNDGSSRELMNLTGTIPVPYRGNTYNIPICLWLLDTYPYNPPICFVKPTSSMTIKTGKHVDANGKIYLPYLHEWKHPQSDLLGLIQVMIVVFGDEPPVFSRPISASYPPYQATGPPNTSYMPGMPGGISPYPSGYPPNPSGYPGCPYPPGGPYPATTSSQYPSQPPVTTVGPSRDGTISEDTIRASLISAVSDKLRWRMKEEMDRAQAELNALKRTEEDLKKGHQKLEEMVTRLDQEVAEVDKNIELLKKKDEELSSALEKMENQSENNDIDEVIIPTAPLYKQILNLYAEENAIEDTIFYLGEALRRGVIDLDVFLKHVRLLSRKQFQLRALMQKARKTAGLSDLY
In short: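 Measuring PTAP–Tsg101 interaction by FP: protein at 10 uM and fluorescent peptide at 50 nM (final), buffer 10 mM HEPES pH 7.5 with 0.15 M NaCl, 3 mM EDTA, 0.1 mM TCEP, 0.01% Tween 20; 20 min incubation, r.t.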

[13] = target: Rap guanine nucleotide exchange factor 4 (Homo sapiens) (UniProt Q8WZA2); test: Confirmatory qHTS for agonist of cAMP-regulated guanine nucleotide exchange factor 4 (EPAC2) (AID 1645884); details: EPAC2 GEF activity, Rap1B-BODIPY-GDP fluorescence; activation: at 154 µM (top of the series), percent relative to cAMP agonist control;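 note: nucleotide exchange releases bodipy-GDP from Rap1 and this lowers its fluorescence; nearly all actives have a fitted effect of over 65% in size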; note: potency is the fitted concentration of half-maximal effect; for activation: % is set by controls: 0 for no effect and ±100 for the full control effect
Sequence of UniProt Q8WZA2 (Q8WZA2 whole entry, looked up): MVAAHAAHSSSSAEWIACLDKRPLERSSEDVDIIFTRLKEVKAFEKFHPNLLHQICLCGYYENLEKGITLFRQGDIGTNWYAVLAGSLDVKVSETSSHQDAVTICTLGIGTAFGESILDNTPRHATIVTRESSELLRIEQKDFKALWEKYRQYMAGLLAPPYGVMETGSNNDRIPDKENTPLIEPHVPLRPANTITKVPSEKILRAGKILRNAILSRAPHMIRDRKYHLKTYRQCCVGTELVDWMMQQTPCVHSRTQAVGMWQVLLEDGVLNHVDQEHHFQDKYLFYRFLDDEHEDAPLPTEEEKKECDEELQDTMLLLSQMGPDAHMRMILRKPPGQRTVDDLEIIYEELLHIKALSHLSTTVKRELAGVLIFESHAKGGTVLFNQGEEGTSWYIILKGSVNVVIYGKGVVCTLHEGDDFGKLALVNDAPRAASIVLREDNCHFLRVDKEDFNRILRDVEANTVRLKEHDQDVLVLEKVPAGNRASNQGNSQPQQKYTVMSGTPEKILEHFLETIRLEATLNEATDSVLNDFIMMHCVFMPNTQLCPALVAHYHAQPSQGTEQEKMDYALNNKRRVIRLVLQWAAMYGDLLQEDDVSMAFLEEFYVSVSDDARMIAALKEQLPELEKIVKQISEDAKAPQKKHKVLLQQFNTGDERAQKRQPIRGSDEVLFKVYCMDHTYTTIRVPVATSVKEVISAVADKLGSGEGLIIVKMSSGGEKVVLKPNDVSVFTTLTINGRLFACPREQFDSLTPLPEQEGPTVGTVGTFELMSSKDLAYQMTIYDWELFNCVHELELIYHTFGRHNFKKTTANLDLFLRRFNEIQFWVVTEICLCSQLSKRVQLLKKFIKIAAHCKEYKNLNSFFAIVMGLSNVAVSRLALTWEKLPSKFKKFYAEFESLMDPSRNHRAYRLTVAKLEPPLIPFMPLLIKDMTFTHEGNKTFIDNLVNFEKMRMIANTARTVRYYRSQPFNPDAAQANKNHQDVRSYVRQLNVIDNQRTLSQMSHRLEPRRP

[14] = target: Rap guanine nucleotide exchange factor 4 (Homo sapiens) (UniProt Q8WZA2); test: Confirmatory qHTS for antagonist of cAMP-regulated guanine nucleotide exchange factor 4 (EPAC2) (AID 1645885); details: activity change, negative = inhibition: at 12.7 µM (top of the series) unless noted; note: % is set by controls: 0 for no effect and ±100 for the full control effect; nearly all actives have a fitted effect of over 25% in size
Tags give direction and shape of the fitted curve.

For COc1cc(/C=C2/C(=O)c3cccc([N+](=O)[O-])c3C2=O)c(Br)cc1O, the Potency [1] was “inactive”, the Potency [2] was inconclusive [inhibitor, single point] and the Potency [3] was inconclusive [cytotoxic, single point]. The Potency [4] was inconclusive [inhibitor, partial curve], the Potency [5] was inconclusive [inhibitor, partial curve] and the Potency [6] was inconclusive [inhibitor, partial curve]. The Potency [7] was active: 23.9 µM, the Potency [8] was inconclusive [activator, partial curve, poor fit] and the Potency [9] was active: 31.6 µM.
With CCOC(=O)/C(=C\c1ccc(N2CCC(c3ccccc3)=N2)cc1)C(C)=O the Potency [10] was inconclusive [inhibitor, partial curve], the Potency [7] was “inactive” and the Potency [8] was active: 79.4 µM. For the same molecule, the Potency [9] was active: 12.6 µM.
For Cn1c(SCC(=O)Nc2cccc(C(=O)O)c2)nnc1-c1cc2cc(Br)ccc2o1, the Potency [11] was inconclusive [inhibitor, partial curve], the Potency [10] was inconclusive [inhibitor, partial curve] and the Potency [7] was inconclusive [inhibitor, full curve]. For the same molecule, the Potency [8] was inconclusive [activator, partial curve, poor fit] and the Potency [9] was “inactive”.
With CCCCCn1nc(-c2ccccc2)c2nc3ccccc3nc21 the Potency [12] was inconclusive [inhibitor, full curve], the Potency [7] was “inactive” and the Potency [8] was inconclusive [activator, partial curve, poor fit].
In the case of CC(=O)Nc1ccc(/C(C)=N/NC(=O)c2ccc(COc3ccccc3Cl)o2)cc1, the Potency [7] is reported as “inactive” and the Potency [13] is reported as inconclusive [activator, partial curve, poor fit].
For COc1ccc(NC(=O)/C(C#N)=C\c2ccc(OCc3ccc(C(=O)O)cc3)c(OC)c2)cc1, the Potency [11] was inconclusive [inhibitor, single point], the Potency [4] was “inactive” and the Potency [5] was inconclusive [inhibitor, single point]. The Potency [10] was inconclusive [inhibitor, single point], the Potency [6] was inconclusive [inhibitor, partial curve] and the Potency [7] was active: 67.5 µM. The Potency [8] was inconclusive [activator, partial curve, poor fit] and the Potency [9] was “inactive”.
For COc1ccc(O)c(C(=O)c2cc(SCC(=O)O)c3nc4sc5c(c4c(=O)n3c2)CCCC5)c1, the Potency [5] was inconclusive [inhibitor, partial curve], the Potency [7] was active: 23.9 µM and the Potency [8] was inconclusive [activator, partial curve, poor fit].
For COc1ccc2nc3ccccc3[n+]([O-])c2c1, the Potency [12] was active: 18.3 µM, the Potency [7] was “inactive” and the Potency [8] was active: 79.4 µM. The Potency [9] was inconclusive [activator, single point].
For O=C(Nc1sc(-c2ccccc2)cc1C(=O)O)c1ccccc1, the Potency [7] was active: 75.7 µM and the Potency [13] was “inactive”.
For CCN(CC)c1nc2ccccc2nc1C(C#N)C(=O)NCCc1ccccc1 (configuration not stated), the Potency [12] was active: 6.51 µM, the Potency [7] was inconclusive [inhibitor, partial curve] and the Potency [8] was “inactive”. The Potency [9] was inconclusive [activator, single point].
With CC(=O)Nc1ccc(Nc2nc3ccccc3nc2NS(=O)(=O)c2ccc(Cl)c([N+](=O)[O-])c2)cc1 the Potency [10] was inconclusive [inhibitor, single point], the Potency [7] was active: 50.1 µM and the Potency [8] was “inactive”. The activation [9] was inactive: 21.8% [at 30.8 µM].
With O=C(O)C(Cc1c[nH]c2ccccc12)NS(=O)(=O)c1ccc2ccccc2c1 (configuration not stated) the Potency [7] was inconclusive [inhibitor, partial curve], the Potency [13] was “inactive” and the Potency [14] was “inactive”.
With COc1cc(CN2C(=O)C(C)ON=C2c2ccccc2F)cc(OC)c1 (configuration not stated) the Potency [7] was “inactive” and the Potency [13] was inconclusive [activator, partial curve, poor fit].
In the case of CC(=O)N1CCN(Cc2cc(=O)oc3ccc4ccccc4c23)CC1, the Potency [7] is reported as inconclusive [inhibitor, partial curve, poor fit] and the activation [13] is reported as inactive: 4.37% [at 17.1 µM, percent relative to cAMP agonist control].
For Cc1ccc2c(c1)C=CC(C#N)N2C(=O)c1ccccc1 (configuration not stated), the Potency [7] was “inactive” and the Potency [13] was “inactive”.
